# Measurements reported in PMC12136788.
# Some of the results follow.
# T1: UNK ZnF1-3 (human, UniProt Q9C0B0 31-174)
# T1 sequence: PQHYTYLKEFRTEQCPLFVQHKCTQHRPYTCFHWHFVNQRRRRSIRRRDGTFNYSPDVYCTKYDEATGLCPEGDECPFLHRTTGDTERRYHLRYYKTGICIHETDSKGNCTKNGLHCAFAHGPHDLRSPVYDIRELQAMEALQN
# B1: chr5:123980014:123980015:-_ENSG00000168916_ENST00000504926|hu_hu|FALSE|FALSE (ssRNA)
# RNA: GGGAGUUCUACAGUCCGACGAUCGGGAGAAACAGCCCGGUAUGCAGGAUGGCUGGGGUCGUACAUCUGUGGGUAAGGAUAAGCAUGCAAGUACUGUAUGUAUGACUGAUGCUGACUCAUGGGUGAGGAGACAGCCACUCUUGUCAACAGAGGAUUGAGCAUCA
# B2: chr12:7078717:7078718:-_ENSG00000215021_ENST00000535923|hu_mus|FALSE|FALSE (ssRNA)
# RNA: GGGAGUUCUACAGUCCGACGAUCUUUGGAGCCUGUGGGGGAGGAGAUUUUUCGAGGUCUGGCCCGAAUGUCAUAGAUGAUGGGGUACUGGAACCAGGGGAUCCUGAAGUGAAGGCCUUCGGCCAGGAUCGUGUCCUGCUGCACCAACAGAGGAUUGAGCAUCA
# B3: chr3:41277855:41277856:+_ENSG00000168036_ENST00000349496|hu_mus|FALSE|FALSE (ssRNA)
# RNA: GGGAGUUCUACAGUCCGACGAUCUUCAAUGGCCUCUGCAGCCUCCUUGUCCUGAGCAAGUUCACAGAGGACCCCUGCAGCUACUCUUUGGAUAUUUUCAAUGGGAGAAUAAAGCAACUGCACAAACAAUGGAAUGGUAUUGAGCAACAGAGGAUUGAGCAUCA
# B4: chr10:24872911:24872912:-_ENSG00000107863_ENST00000396432|hu_mus|motif|central (ssRNA)
# RNA: GGGAGUUCUACAGUCCGACGAUCCUGGUAAAUGGAAGGAAACUUGUUACUGAUAAAAUGCAUUCAUUUAUUCAAUUUUCGGAUUUUAACAAUAUGGCACCCUAAAAAUCAAAUGUACUUUUAUCAUGAGGCACUUUUGUUAGUCAACAGAGGAUUGAGCAUCA
# B5: chr13:97419175:97419176:-_ENSMUSG00000021670_ENSMUST00000022176|mus_hu|motif|central (ssRNA)
# RNA: GGGAGUUCUACAGUCCGACGAUCGCUUUACGUACAACAGAAAAGGUAAAUCUUCCACAAUAACAAUGCAGACACAAUCACGGAGAGGCUCUCCAUGCUGCCAUGGUUUCCUGGAAUGUUUUUCAGAGUCCAUCUUCUACAAGACAACAGAGGAUUGAGCAUCA
# B6: 156755749_156756598_1866_CDS_ENSG00000146909_ENST00000275820|human|control|control (ssRNA)
# RNA: GGGAGUUCUACAGUCCGACGAUCCGUCCCCACAAGCUGCUUCUGCAGGUGCGUAUGGUGACUGUUGUCGAUCAUCGGGGCCCCACUCCAGGCGGACCCCACAAUCCACCAGCGACCCGUCUGCUCCGCACUCAAGACACUGUCCAACAGAGGAUUGAGCAUCA
# Molecular target: T1, UNK ZnF1-3
# Experiment: nsRBNS (natural sequence RNA bind-n-seq); RBNS binding buffer (assumed for nsRBNS): 25 mM Tris pH 7.5, 150 mM KCl, 3 mM MgCl2, 0.01% Triton X-100, 500 ug/ml BSA, 20 U/ml SUPERase-In, 4 C; UNK is unkempt and MSI1 is Musashi-1; names of the RNAs are library labels; protein concentration not given here; high values mean tight binding
row,Binder,binding signal [enrichment R]
1,B1,0.531
2,B2,1.73
3,B3,1.72
4,B4,0.805
5,B5,0.746
6,B6,0.818
